Experimental data from patent US5602156A, “Method for inhibiting metalloproteinase expression” (The United States of America as represented by the …, priority 1994, dated 1997).
Some results were stated once for a whole list of compounds, not compound by compound.

Tests used:
[1] = tested on: signal transduction and proliferation; conditions: cited from earlier work
[2] = tested on: MMP-2; assay: Gelatin zymography of conditioned media from human cancer cell lines (gelatinase activity); format: cell-based; conditions: 10 μM, structural analogs
Method: Conditioned media for zymogram and Western blot analysis were produced under serum-free conditions. Cells (2 million) were plated in 25 cm^2 flasks in serum-containing medium and cultured overnight. Serum-containingmedium was removed and the cell monolayers were washed twice with DMEM/ITS (DMEM containing insulin (5 μg/mL), transferrin (5 μg/mL), and selenium (5 ng/mL)). The resultant cells were fed with 3 mL of DMEM/ITS and additives as described in the Examples for two 24 hour periods. Conditioned media samples were collected at 24 hours and cells were refed with fresh DMEM/ITS containing the described additives for an additional 24 hours. Conditioned media samples were centrifuged to remove cells and debris then frozen at -20° C. until use. Freeze and thaw cycles of the conditioned media were limited to no more than two.
Quantitation of the effect was evaluated by laser densitometry of the resultant zymograms.
Aliquots of conditioned medium (15 μL) were electrophoresed on gelatin-containing 10% PAGE gels under nonreducing but denaturing conditions. These conditions allow the different gelatin-degrading species (MMPs) to separate by size. […] Bands of clearing, seen after Coomassie blue staining correspond to areas of gelatinase activity.
OVCAR3 conditioned media samples were concentrated 10-fold prior to zymography.
Known concentrated conditioned medium from HT1080 cells was used for identification of the gelatinase species as marked in FIG. 1A: 92 kDa, gelatinase B/MMP-9; 72 kDa, gelatinase A/MMP-2 latent form; 65 kDa intermediate and 62 kDa activated forms of MMP-2. The activated form of MMP-2 results from cleavage of the amino terminal domain.
Lane 1 corresponds to cells treated only with 0.05% DMSO as a control.
Quantitation of the zymograms in FIGS. 1A-1C were carded out using laser densitometry.
The effect of structural analogs on the gelatinase activity of A2058 cells was similarly evaluated.

[3] = tested on: proliferation; conditions: cited from earlier work
[4] = tested on: receptor-operated and voltage-gated calcium influx; conditions: cited from earlier work
[5] = tested on: arachidonic acid release; conditions: cited from earlier work

NC(=O)c1nnn(Cc2cc(Cl)c(C(=O)c3ccc(Cl)cc3)c(Cl)c2)c1NC=O [Compound 3]
activity in signal transduction and proliferation assays [1]: inhibit activity in signal transduction and proliferation assays
gelatinolytic activity of A2058 cells [2]: reduced gelatinolytic activity

O=C(c1ccc(F)cc1)c1ccccc1Cl [Compound 9]
proliferation [3]: do not inhibit
calcium influx inhibition [4]: do not inhibit calcium influx
arachidonic acid release [5]: do not inhibit
gelatinolytic activity of A2058 cells [2]: did not reduce gelatinolytic activity

O=C(c1ccccc1)c1ccccc1 [Compound 10]
calcium influx inhibition [4]: do not inhibit calcium influx

NC(=O)c1nnn(Cc2cccc(Cl)c2)c1N [Compound 11]
proliferation [3]: do not inhibit
calcium influx inhibition [4]: do not inhibit calcium influx
arachidonic acid release [5]: do not inhibit
gelatinolytic activity of A2058 cells [2]: did not reduce gelatinolytic activity

NC(=O)c1nnn(Cc2ccc(C(=O)c3ccccc3)cc2)c1N [Compound 8]
proliferation [3]: do not inhibit
calcium influx inhibition [4]: do not inhibit calcium influx
arachidonic acid release [5]: do not inhibit
gelatinolytic activity of A2058 cells [2]: did not reduce gelatinolytic activity

Nc1c(C(=O)O)nnn1Cc1cc(Cl)c(C(=O)c2ccc(Cl)cc2)c(Cl)c1 [Compound 6]
activity in signal transduction and proliferation assays [1]: inhibit activity in signal transduction and proliferation assays
gelatinolytic activity of A2058 cells [2]: reduced gelatinolytic activity

NC(=O)c1nnn(Cc2cc(Cl)c(C(=O)c3ccc(Cl)cc3)c(Cl)c2)c1NC(=O)c1ccccc1 [Compound 5]
activity in signal transduction and proliferation assays [1]: inhibit activity in signal transduction and proliferation assays
gelatinolytic activity of A2058 cells [2]: reduced gelatinolytic activity

CC(=O)Nc1c(C(N)=O)nnn1Cc1cc(Cl)c(C(=O)c2ccc(Cl)cc2)c(Cl)c1 [Compound 4]
activity in signal transduction and proliferation assays [1]: inhibit activity in signal transduction and proliferation assays
gelatinolytic activity of A2058 cells [2]: reduced gelatinolytic activity
